In the supplement of paper PMC12632987:
The full ranking holds about 2,300 sequences; the median of “median log2 fold change of GCK-ALFA target abundance (FLAG IP / Myc IP barcode read proportion)” is about 0.095, and the lowest 2% start at about -0.47. This is one part of the list.

B1: LC3A_78_2081 (protein)
chain: MKVAIIAHTESGKEIAEELEKKLTDADEVIIGPISELEKLVEKHKDADEILVDIVADTLDEVDAAEEKVRKILSDYNHSSIYEYDEETGKWIGHIIATKK
B2: LC3A_28_855 (protein)
chain: SETRKSIEEAREELEKAREAKEPAVITVTVTSDVTEEEVEEVIELIKEAAEASKEVPDLTLIIDFEGEIDPEHLNRITDAADEAIKKNPKLNVIFALDEE
B3: LC3A_28_1095 (protein)
chain: SALEKQLAAALAEVEAAAARGEEVVVTINVDDTATEEDIELLKKTLERMAEIAKTLPALSVIINLSGEKAQEKATILSDHADELEKRYPNLTVIIALDED
B4: LC3A_28_1022 (protein)
chain: SALDEELEALRAEVEAALARGEDVLLEVTIKPTDSLEEVRRKMERVKEIALEASKRGKVDVLIDVEKGVSQEKIDIVMDAAEELEEEDPSVNVIIALEEE
B5: LC3A_free_26_2154 (protein)
chain: DHFVDLVALDKAIDYLEKALELLEADPNASEKLKELVRKALEELKKETLESLKKALELLKEALKLLAEDKSLDPKTKAELTKLLTKAIELVKENIEIAES
B6: LC3A_3_1562 (protein)
chain: GEKLIEELLKELKEAGASEEVIEAVRKAAEALLERGYEEALKEFAEEMRKLLDLPDEYLLEFATEVLETVETEDLNEEELIERIKEIARTVRSAAEIIEL
B7: LC3A_3_1870 (protein)
chain: MDEVIAEILALLEALGRSEETIAAARELLEALKEKGYLEAAKTLLEELKKLKDLPDELLLDMFEDLLRAVKEENLNEEETIEKIKEEATTAKNEKEIIEL
B8: LC3A_17_539 (protein)
chain: KEELKEELKKLIEEAEKLVEEVKPYIPEEAEKAKKRLKEAKKLLEEGKLKEAAELLAETADEMADAVSETEWEDPLKRTLLELEFDSLAIEAESILLKLE
B9: LC3A_28_960 (protein)
chain: SELEKHLEEVLKRAKEAAEKGEPEVFVIKVPGTANEEDIEKVIEALKEIAEILKDVKGSAIIIEVDSGVKQEHIDKIADAAEEIEKKYPNITVIIALDED
B10: LC3A_3_1570 (protein)
chain: SEELLERGLRLLREAGFSEEVIEAARRTLEALLERGAEKAAEAVLETLLKLKDAPEELKLDLLEDVLELVETSTDSLEELEKAIKEELQVFLNESEIEEL
B11: LC3A_free_8_2541 (protein)
chain: NSQEATRKVTEKLDELEEELRELAKKLGLERLDILELELLIGSTIAEVIGLSDGSIEEIRKAVEEGFAEVLKKAKELSPELAELVEKGKKEILELLKKLE
B12: LC3A_free_39_2195 (protein)
chain: SEEEREEAKKEILELAAEYGEEAEKLAKELLELIGDDLERIKALLEALKKAKEEGVDILELLKEALELAKKLKAEGKSKEEIAEEVLELIEDYINLIPID
B13: LC3A_74_2077 (protein)
chain: SLTPEEAEIVLEALATAELLKELAKENPENKEKLLEKAKRLRELAEKVIELAGLDKELYESGGEIEAELLLDKENITVEEALERAEKKLEEVEKLLKKLE
B14: LC3A_3_1649 (protein)
chain: MEEKLEELEEELRKAGHSEETIEAFRETAEELIKRGYYEALEVLIEEVRKLKDLPDEILLAMLEDILRYIREEDASEEEVIEKIKEEARIARNEGEIIEL
B15: LC3A_127_180 (protein)
chain: STLEEALRLAEEIIRLAEEMLKPETSREERKELAKRIIELAERLKELQPELKEDADELIELAKEVLELFEKGEELNEYIEMLIEGIRVTAELILLKLEEK
B16: LC3A_free_46_2344 (protein)
chain: YKVEVTVDLRAAPKEETEATVKELEEKAKEIAKKYGAEVKIEVEFIENEDGTTSAIVKITFTAPTLETAQAIAQAMLDKIDELDAKTGLVGLVSVEIIET
B17: LC3A_free_8_2495 (protein)
chain: NVEKLVKAALKGLDKLEEELTKKAKELGLSRLDILELELEVGSTIADVISVSDEPPEKIIETTREGLEDIIKLAAELSEELAKLAKEKSKEILEELEKLK
B18: LC3A_3_1350 (protein)
chain: SEELIERLVERLREAGFSEEVIAAARRLLELLAKKGHEEAMERVVEVLLEHKDAPEEHIIEVLNNAAAEVEANPNLTEEEVEELIKLLDNDLEIEPIEEE
B19: LC3A_3_1439 (protein)
chain: MEELLKEAEKVLKEIGASEEARKAVLELVRLALEAGEEELVKELIKVLKKAKKVKSEDLLEAAERALRRIREEGVPVEEAMKEFIEEIRLLELEEEIEEL
B20: LC3A_3_1472 (protein)
chain: LEERLEEVLKRLREAGASEEVLEAVREAYEKLKELGHEEAAKTFIEEMEKLVGLPSELLLAFAEDVLAAVEKYADDPEKLIEEIKSIAAATRNEAEIIEL
B21: LC3A_free_47_2437 (protein)
chain: ATEVEKLEVVYEPGKEEEFREKVEEAIEEARRIATEEGKEVEVTIIVDDSPEAQALAREAEERFKAAAKEIGAKMTILVEYRDPETGASIIEITKVEPPP
B22: LC3A_3_1582 (protein)
chain: MEEMIEEYVERLREAGLSEEVIEKAREVITLLLERGWEETAKLVAEGLLELKDAEEELLLETLEEIKKIAEDESLSKEEVLKKVKELLSTAKSESEIIEL
B23: LC3A_3_1478 (protein)
chain: LEEELKAALEELRAAGASDEVLAAFEAAFKKLKELGWENAAKTFIEEARKLAGLPDELLLAFAADVEEAIEKYSNDEEKLAEEIKKIAAATLAEGEIIEL
B24: LC3A_147_420 (protein)
chain: YKVTVTADFIVKADPETALAAIKALAEELKKEGAKEVKIEVETDPETGEVFVTVTVVAEKETEEEAQAFANEVIDRFEALEEAHKDILKLGMISVEIEKK
B25: LC3A_45_1942 (protein)
chain: KTIYVAEIDILLKGSEEDLEKAKKIAKEVAKKYGVELEIDEELNKELNEKTKEDGYKFLRLTLKSESEEKVSKAADEIEEKLLEEFKGKVSSIISFSKEE
B26: LC3A_28_1194 (protein)
chain: SLADEAIAALRAQTEAALAAGSDEVITVTITSEMSLEDVERIAEAMREAAERLASVPSVSIVVDVESGVPQEAIDLLAETGEEIEAKYPNVTVIIALDED
B27: LC3A_147_442 (protein)
chain: VEIEIDILVKGEEAKEEVIKKIKEIVEELKEKGFEVELEIEVEKLDEDTYFIKVKIKVKAETKEEAEEAENLILDKIDEMEEELKDKILGSIISVEIEEE
B28: LC3A_free_8_2453 (protein)
chain: DSKKLAEKAIEILEELEEKLEKLLKKAGANHLEILDVKLEVGSVIAEVVSLSDESPEKIADAAIEGIDEVLKLVKELKPEIAEEAEKLAEEAKKKIKEAL
B29: LC3A_147_443 (protein)
chain: VEVEIDILVKGEEAVEKVKEGIKAIVEKLKEKGYKVKLEIKVEKIDENTYYIEVKIIVEAETEEEAEEARDIVLDGIDELEEELKDEILGSIISVEIIKK

Each binder was assayed against MAP1LC3A, Q9H492 (assay: median log2 fold change of GCK-ALFA target abundance (FLAG IP / Myc IP barcode read proportion) (log2 ratio); each designed protein is fused to an ALFA-tag nanobody in HEK293 cells to bring the named protein to FLAG-tagged glucokinase (GCK); Myc marks an untargeted standard; higher = target protein stabilised (more abundant)). Details: target protein: 3xFLAG-MCP-GCK-ALFA reporter; HEK293 landing pad (RPLP).
In short: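 Binders fused to an ALFA nanobody were recombined as a library into HEK293 landing-pad cells, which were induced with 2 μg mL^−1 doxycycline and then transfected to express a FLAG-tagged target and a Myc-tagged standard. After 48 h, circular RNA barcodes recovered by anti-FLAG and anti-Myc immunoprecipitation of lysates were reverse transcribed, amplified and sequenced. Each binder's target abundance is the median log2 ratio of FLAG to Myc barcode read proportions, from barcodes present at ≥10^−7 in both replicates, binders carrying ≥3 barcodes per replicate, a 10^−6 pseudocount and pooled replicates.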

Point of comparison: B19, “median log2 fold change” value 0.115. Against it:
- B1 — within 0.2 log units, 0.263
- B2 — within 0.2 log units, 0.127
- B3 — within 0.2 log units, 0.208
- B4 — within 0.2 log units, 0.00506
- B5 — within 0.2 log units, 0.167
- B6 — within 0.2 log units, -0.0121
- B7 — within 0.2 log units, 0.102
- B8 — lower, -0.51
- B9 — lower, -0.165
- B10 — within 0.2 log units, 0.107
- B11 — within 0.2 log units, -0.0666
- B12 — within 0.2 log units, 0.275
- B13 — within 0.2 log units, 0.214
- B14 — within 0.2 log units, 0.179
- B15 — within 0.2 log units, 0.0149
- B16 — within 0.2 log units, 0.257
- B17 — lower, -0.196
- B18 — within 0.2 log units, 0.314
- B20 — within 0.2 log units, 0.213
- B21 — within 0.2 log units, 0.233
- B22 — within 0.2 log units, 0.212
- B23 — within 0.2 log units, 0.239
- B24 — within 0.2 log units, 0.0454
- B25 — within 0.2 log units, 0.247
- B26 — within 0.2 log units, 0.0234
- B27 — lower, -0.21
- B28 — within 0.2 log units, 0.172
- B29 — within 0.2 log units, 0.256
